# Measurements reported in the BET-seq Pho4 binding data (Le et al. 2018).
# This is one part of the list. Values were computed here from the reads of four pooled replicates and scatter widely.
# Target: T1, Pho4 (S. cerevisiae) (UniProt P07270)
# T1 sequence: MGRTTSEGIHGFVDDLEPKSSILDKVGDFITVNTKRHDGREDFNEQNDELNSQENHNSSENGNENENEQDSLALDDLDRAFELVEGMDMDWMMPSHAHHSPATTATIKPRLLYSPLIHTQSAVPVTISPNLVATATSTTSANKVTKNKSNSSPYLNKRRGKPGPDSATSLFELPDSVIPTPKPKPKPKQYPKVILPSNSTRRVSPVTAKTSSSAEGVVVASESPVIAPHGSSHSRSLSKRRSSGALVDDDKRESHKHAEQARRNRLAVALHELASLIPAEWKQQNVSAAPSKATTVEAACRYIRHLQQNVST
# Assay: relative binding free energy (BET-seq); higher = weaker binding
# Conditions: reference: library average
row,Sequence,relative binding free energy
1,GCGGACACGTGTGTGG,0.13 kcal/mol
2,ATGTACACGTGGCGAT,-0.01 kcal/mol
3,GTGATCACGTGGTTGC,0.02 kcal/mol
4,GATCTCACGTGTTTTT,0.29 kcal/mol
5,GGTATCACGTGGTTAA,0.14 kcal/mol
6,GTAGTCACGTGGGTCT,-0.06 kcal/mol
7,ATTTGCACGTGATAAG,0.07 kcal/mol
8,TTATACACGTGTAATT,0.17 kcal/mol
9,TATGGCACGTGGGGGA,-0.1 kcal/mol
10,GGTTACACGTGTATGG,0.15 kcal/mol
11,AGCGGCACGTGGGGAT,-0.12 kcal/mol
12,TTGATCACGTGAGATT,0.34 kcal/mol
13,GTTTACACGTGCAAGT,0.12 kcal/mol
14,TTAGTCACGTGGGGGT,-0.08 kcal/mol
15,TGGTTCACGTGGTATG,0.27 kcal/mol
16,TATTTCACGTGGATAT,0.2 kcal/mol
17,AGCATCACGTGTTTTT,0.17 kcal/mol
18,TAATACACGTGTCTGG,0.05 kcal/mol
19,GTAGGCACGTGGGCGG,-0.2 kcal/mol
20,AAAGGCACGTGGGTAG,-0.21 kcal/mol
21,CTGTGCACGTGTTGAA,0.08 kcal/mol
22,AGTAGCACGTGTTGAG,0.05 kcal/mol
23,GGGCTCACGTGGAGAT,0.26 kcal/mol
24,AGATGCACGTGGGCTC,-0.05 kcal/mol
25,ATAGGCACGTGTCTAT,-0.04 kcal/mol
26,AGTGTCACGTGCTTGG,-0.04 kcal/mol

row,Sequence,relative binding free energy
1,TGGGGCACGTGGGGCG,-0.17 kcal/mol
2,GGCATCACGTGGGCGG,0.15 kcal/mol
3,AGCTACACGTGTCGGG,0.22 kcal/mol
4,GAGCTCACGTGTGTGT,0.17 kcal/mol
5,TTAGTCACGTGAAAGG,0.2 kcal/mol
6,TGTGGCACGTGAGTAG,0.2 kcal/mol
7,CATGACACGTGGGGGC,-0.09 kcal/mol
8,GGCATCACGTGATGCG,0.3 kcal/mol
9,TATTACACGTGCGTAG,0.09 kcal/mol
10,GCGTGCACGTGGGGCG,-0.19 kcal/mol
11,CGTTTCACGTGATGCT,0.36 kcal/mol
12,GAAGTCACGTGTATTG,0 kcal/mol
13,AGGGGCACGTGTTGCG,-0.11 kcal/mol
14,CTCGTCACGTGATGTG,0.14 kcal/mol
15,CGTGGCACGTGCGTGG,-0.22 kcal/mol
16,TGAGTCACGTGCTAAT,0.3 kcal/mol
17,TGGTGCACGTGACTTG,0.03 kcal/mol
18,GGGGACACGTGCTGAG,-0.01 kcal/mol
19,TGGGGCACGTGTATAA,-0.23 kcal/mol
20,ATAGGCACGTGATAGA,-0.12 kcal/mol
21,TGGATCACGTGGTCAA,0.15 kcal/mol
22,AGGATCACGTGAGGTG,0.24 kcal/mol
23,GATATCACGTGGCGTG,0.06 kcal/mol
24,AGAATCACGTGTAGTG,0.15 kcal/mol
25,GAGTGCACGTGTGGCT,-0.05 kcal/mol
26,ACGTACACGTGTGGGG,0.04 kcal/mol

row,Sequence,relative binding free energy
1,GATAGCACGTGCTGTT,-0.08 kcal/mol
2,AGGTACACGTGATAAG,0.13 kcal/mol
3,ATTTGCACGTGTCAGT,0.07 kcal/mol
4,AGTATCACGTGTGGCG,0.06 kcal/mol
5,CGTTGCACGTGAATGT,0.22 kcal/mol
6,AATGACACGTGGTTAG,0.03 kcal/mol
7,GGAGGCACGTGATTGC,0.13 kcal/mol
8,AGGGGCACGTGGGTGG,-0.24 kcal/mol
9,TATTTCACGTGGAAGT,0.4 kcal/mol
10,AATCGCACGTGGTTAG,-0.07 kcal/mol
11,AATAGCACGTGAGAGT,0.06 kcal/mol
12,AGCGGCACGTGGGCAG,-0.24 kcal/mol
13,GACTTCACGTGAGTTT,0.56 kcal/mol
14,GAGCACACGTGTGGGT,0.06 kcal/mol
15,TTGGTCACGTGAATGG,0.31 kcal/mol
16,GGGAGCACGTGCTCGG,-0.15 kcal/mol
17,GGTTTCACGTGCTAGT,0.09 kcal/mol
18,ATTTTCACGTGCGATA,0.21 kcal/mol
19,ATTTTCACGTGTGACG,0.37 kcal/mol
20,ATAGACACGTGGGGCG,-0.08 kcal/mol
21,AGCTGCACGTGTGTAT,-0.07 kcal/mol
22,GATTGCACGTGTGAGT,0.21 kcal/mol
23,ATCGTCACGTGTGAGG,0.16 kcal/mol
24,GGGTACACGTGATTCG,0.15 kcal/mol
25,CGGGTCACGTGTGTGT,0.08 kcal/mol
26,CGTTGCACGTGTCTGA,0.2 kcal/mol

row,Sequence,relative binding free energy
1,TTTTGCACGTGAGAGA,0.26 kcal/mol
2,AATCGCACGTGAGGTT,0.25 kcal/mol
3,GTAATCACGTGGGGAC,0.12 kcal/mol
4,GCTGTCACGTGCTGTG,0.11 kcal/mol
5,GGCGTCACGTGGAGGC,0.11 kcal/mol
6,TGTATCACGTGGAATG,0.23 kcal/mol
7,GTACTCACGTGGTATG,0.01 kcal/mol
8,TTTGTCACGTGGGAGG,-0.03 kcal/mol
9,GATCGCACGTGTGAGG,0.22 kcal/mol
10,TATTACACGTGCGTGT,0.05 kcal/mol
11,TTTCGCACGTGGGTGG,-0.22 kcal/mol
12,AATTTCACGTGTAAGG,0.3 kcal/mol
13,ACGGGCACGTGATTTA,0.16 kcal/mol
14,GGGGGCACGTGGGGGA,-0.11 kcal/mol
15,AGGCTCACGTGATTAT,0.36 kcal/mol
16,GTTCACACGTGTGTGG,0.25 kcal/mol
17,AGATTCACGTGCGTTA,0.17 kcal/mol
18,CGTATCACGTGCTTTT,0.28 kcal/mol
19,GTAAACACGTGTTGCG,0.09 kcal/mol
20,AGGTACACGTGGGCAT,-0.14 kcal/mol
21,AGTGGCACGTGATCGT,-0.19 kcal/mol
22,ATTATCACGTGAGGGG,0.33 kcal/mol
23,ATAATCACGTGTAAGG,0.13 kcal/mol
24,GATCGCACGTGGTTTT,0.1 kcal/mol
25,AGTTGCACGTGTTAAG,0.18 kcal/mol
26,GTAATCACGTGATTTG,0.28 kcal/mol

row,Sequence,relative binding free energy
1,GTGGTCACGTGCGGGT,0.13 kcal/mol
2,GGAAACACGTGGGAGG,-0.05 kcal/mol
3,GGTTACACGTGCGTCG,0.17 kcal/mol
4,TGGCGCACGTGGTAGC,-0.04 kcal/mol
5,CGATGCACGTGATGGG,-0.02 kcal/mol
6,TTTGGCACGTGGCATG,-0.25 kcal/mol
7,GTCATCACGTGGGGGA,-0.01 kcal/mol
8,AAGTGCACGTGGTAAG,0.03 kcal/mol
9,ATTGTCACGTGCCGTG,0.12 kcal/mol
10,ACGGGCACGTGGTTTG,-0.19 kcal/mol
11,ACTGGCACGTGATTGT,-0.06 kcal/mol
12,ATGTTCACGTGCTGAT,0.23 kcal/mol
13,GGTTTCACGTGCTGTA,0.39 kcal/mol
14,GATATCACGTGGAGTG,0.19 kcal/mol
15,TTTCTCACGTGGTTCG,0.19 kcal/mol
16,AGAACCACGTGTGTGG,0.04 kcal/mol
17,CGCGTCACGTGTGTGC,0.08 kcal/mol
18,TTTCTCACGTGATGCG,0.41 kcal/mol
19,TCAGTCACGTGAAAGG,0.24 kcal/mol
20,AATGTCACGTGATTAG,0.09 kcal/mol
21,CTGGTCACGTGAGGGC,0.26 kcal/mol
22,GGCAGCACGTGTGGGC,0.06 kcal/mol
23,TGGTTCACGTGTCTGA,0.34 kcal/mol
24,TGCGTCACGTGATGCG,0.29 kcal/mol
25,GGAGTCACGTGAAGGT,0.37 kcal/mol
26,TGGTGCACGTGTGGTG,0.1 kcal/mol

row,Sequence,relative binding free energy
1,ATATACACGTGGATGC,0.2 kcal/mol
2,TATAACACGTGTAGGT,-0.05 kcal/mol
3,TGATCCACGTGGAGTT,0 kcal/mol
4,TGTAGCACGTGGTGTA,-0.14 kcal/mol
5,TGGGTCACGTGTAGCT,0.15 kcal/mol
6,GGTGTCACGTGTGTGA,0.19 kcal/mol
7,TTTTACACGTGAATTG,0.29 kcal/mol
8,TGGTCCACGTGCGCGG,-0.19 kcal/mol
9,TGTGACACGTGCGTCG,-0.01 kcal/mol
10,AGGTTCACGTGATTGA,0.38 kcal/mol
11,AATAGCACGTGGAGGG,-0.23 kcal/mol
12,AGATTCACGTGGAGAG,0.37 kcal/mol
13,TAAGACACGTGTTAGG,0.04 kcal/mol
14,CTGGGCACGTGAGATT,0.09 kcal/mol
15,GGGTTCACGTGGCAGG,0.25 kcal/mol
16,ATTATCACGTGTTGTC,0.03 kcal/mol
17,GCAGGCACGTGGGGAG,-0.23 kcal/mol
18,GGGGTCACGTGCGAGT,0.2 kcal/mol
19,TCACGCACGTGATGGG,0.05 kcal/mol
20,GGCTGCACGTGTAGGG,-0.01 kcal/mol
21,TTACGCACGTGTTGTT,-0.08 kcal/mol
22,CGGGACACGTGTATGG,0.12 kcal/mol
23,GGGTACACGTGTAGTG,0.07 kcal/mol
24,GATGTCACGTGGGAGT,0.16 kcal/mol
25,GTTGGCACGTGAAGTT,0.19 kcal/mol
26,TGGTTCACGTGTGCAG,0.19 kcal/mol

row,Sequence,relative binding free energy
1,AGTGTCACGTGGGATC,-0.03 kcal/mol
2,TATGTCACGTGGGGTA,-0.06 kcal/mol
3,AATTTCACGTGGTTAT,0.24 kcal/mol
4,TGCGGCACGTGTAATT,0.02 kcal/mol
5,TGGCTCACGTGGTTTG,0.21 kcal/mol
6,AGTAGCACGTGATTTT,0.05 kcal/mol
7,GGTTCCACGTGGTAGT,0.09 kcal/mol
8,GATGTCACGTGTAGTC,0.29 kcal/mol
9,TGTTGCACGTGGACGG,0.08 kcal/mol
10,TTTTCCACGTGCTGGT,0.05 kcal/mol
11,AGTGACACGTGTATGG,-0.08 kcal/mol
12,TTTTACACGTGGCAAG,0.08 kcal/mol
13,GACGGCACGTGTGGTG,0.08 kcal/mol
14,TGCGTCACGTGTCTTG,0.14 kcal/mol
15,TTTATCACGTGTCGTC,0.33 kcal/mol
16,AATCGCACGTGAGGGT,-0.07 kcal/mol
17,TGTTTCACGTGTGAGC,0.31 kcal/mol
18,TTGGGCACGTGTCTTA,-0.11 kcal/mol
19,TTGGCCACGTGTATAG,-0.05 kcal/mol
20,AATGACACGTGGTGGT,-0.19 kcal/mol
21,AATGACACGTGGAAGG,0.22 kcal/mol
22,AGTAGCACGTGCGAGG,-0.12 kcal/mol
23,TGTGTCACGTGAGAGA,0.23 kcal/mol
24,GTATGCACGTGGTGTC,-0.1 kcal/mol
25,ACGTTCACGTGGTTGA,0.17 kcal/mol
26,ATCGTCACGTGATGGC,0.33 kcal/mol

row,Sequence,relative binding free energy
1,GAAGTCACGTGTTCGG,0.22 kcal/mol
2,TTCTGCACGTGTCGGG,0.17 kcal/mol
3,TAGGGCACGTGGCAGA,-0.18 kcal/mol
4,GGAAACACGTGTAAGT,0.08 kcal/mol
5,TATTTCACGTGAAGTA,0.43 kcal/mol
6,GTGGGCACGTGGAAGT,0.11 kcal/mol
7,TATGTCACGTGTGCAA,-0.03 kcal/mol
8,GGTCGCACGTGTGGTA,0.16 kcal/mol
9,ATGCTCACGTGTGGTA,0.23 kcal/mol
10,GCATTCACGTGGTGGC,0.25 kcal/mol
11,TGAATCACGTGGCCGG,0.16 kcal/mol
12,GAGGTCACGTGGTACG,0.03 kcal/mol
13,TGTAACACGTGGTTAT,-0.07 kcal/mol
14,CGTTTCACGTGAAAGG,0.36 kcal/mol
15,CAGGTCACGTGTGATT,-0.01 kcal/mol
16,CAGGGCACGTGCGTTT,-0.2 kcal/mol
17,GCTTTCACGTGTGCGG,0.22 kcal/mol
18,CGGTCCACGTGGGTTG,-0.18 kcal/mol
19,TCTATCACGTGTAGTG,0.17 kcal/mol
20,TGCTTCACGTGAGAGG,0.5 kcal/mol
21,AGATTCACGTGTCATG,0.09 kcal/mol
22,AGCGTCACGTGTTGAA,0.17 kcal/mol
23,TATTACACGTGTATAT,-0.06 kcal/mol
24,GAGCACACGTGGGTGG,-0.05 kcal/mol
25,TGTTGCACGTGTACTT,0 kcal/mol
26,AGGGTCACGTGGCCTG,-0.08 kcal/mol

row,Sequence,relative binding free energy
1,GTGCTCACGTGTGGGC,0.38 kcal/mol
2,TAATGCACGTGATGGC,0.08 kcal/mol
3,TATTGCACGTGTGAAT,0.01 kcal/mol
4,TCGTTCACGTGGGCTG,0.13 kcal/mol
5,TGAGTCACGTGGGGAT,-0.07 kcal/mol
6,AGGTACACGTGTGCCG,0.15 kcal/mol
7,TGAAACACGTGTGGGA,0.13 kcal/mol
8,TGGCACACGTGTGTGT,0.15 kcal/mol
9,TTGTGCACGTGTGGAT,0.02 kcal/mol
10,CGGAGCACGTGGAAGG,-0.12 kcal/mol
11,TAAAGCACGTGAGGAT,0.26 kcal/mol
12,TATTGCACGTGGGGTG,-0.07 kcal/mol
13,TGTAGCACGTGGTTAG,-0.07 kcal/mol
14,ATAGGCACGTGCGAGG,-0.21 kcal/mol
15,AGGGTCACGTGGTACG,0.1 kcal/mol
16,AGTGTCACGTGTGTGG,0.1 kcal/mol
17,GAGTGCACGTGTTGCT,-0.03 kcal/mol
18,ATTATCACGTGACGGT,0.31 kcal/mol
19,ATTTTCACGTGCTGGA,0.39 kcal/mol
20,TTGGCCACGTGGTGAA,-0.14 kcal/mol
21,AAGTGCACGTGCAGGG,-0.2 kcal/mol
22,GTGGCCACGTGGTGTA,-0.07 kcal/mol
